According to patent US20230414779A1, “ANTIGEN-BINDING FRAGMENTS AND USES THEREOF” (NewSouth Innovations Pty Limited, priority 2020, published 2023):
“Also recorded” adds a separate entry of the source.

Legend:
monocytes = assay: Binding to monocytes in vivo after iv injection, flow cytometry; set-up: species or system mouse; details: bled at 1 min and 15 min
Description: FIG. 6A is a plot showing the binding of HRU4, HRU5 and HRU6 to monocytes in vivo. Labelled HRU proteins were injected intravenously into double transgenic mice (FcγRIIA/hPF4). Mice were bled at 1 min and 15 min and binding was determined by flow cytometry.

human platelets = assay: Platelet binding, flow cytometry (platelet-based fluorescent assay); details: labelled scFvs, in words
Description: FIG. 1D provides graphs of platelet-based fluorescent assay measurements with KD and R^2 values for the parental scFv, HRU5 and HRU6. Non-linear regression analysis (one-site specific binding) was used to determine KD and R^2 values. GMF, geometric mean fluorescence.
Platelet-rich plasma (PRP) was obtained from whole blood after centrifugation at 200×g for 10 min. Washing/Suspension buffer (PBS, 0.5% BSA, 25 mM EDTA, pH 6.8) was used for platelet preparation throughout the experiment. 4 μl of PRP was incubated with various concentrations of fluorescently labelled HRU molecules for 30 min. Cells were washed once with 500 μl of buffer (PBS, 0.5% BSA, 25 mM EDTA, pH 6.8), suspended in 200 μl of PBS and analysed by flow cytometry (Cantoll, BD Biosciences).

platelets [1] = assay: Serotonin release assay (platelet activation); assay type: cell-based, human; details: 0.1 IU/ml heparin; induced by KKO (FIG. 4) / HIT serum
Excerpt: FIG. 4 is a graph of the serotonin release assay. Serotonin release was induced by a HIT-like monoclonal antibody (KKO) and was inhibited by parental scFv, HRU5, HRU6 or HRU7. Heparin was used at therapeutic low concentrations (L, 0.1 U) and at inhibitory high concentration (H,100 U). Dotted lines denote 0% and 20% CPMA. Values over 20% are considered positive. CPMA, counts per minute.
SRA is the gold standard to confirm the presence of platelet-activating HIT antibodies. Platelets from a healthy donor were labelled with Hydroxytryptamine Binoxalate, 5-[2-^14C]-(Serotonin) (^14C-5HT) (1.5 μl/ml) and mixed with heparin (0.1 (low dose) or 100 IU/ml (high dose)) in the presence of HIT serum. The protein of interest was then added to the reaction and incubated at room temperature for 1 h. After centrifugation the supernatant was collected and the ^14C-serotonin released was measured in a scintillation counter. The percentage of ^14C-serotonin released was calculated by determining the proportion in the supernatant relative to the remaining ^14C-serotonin in platelets. A test result is defined as positive if more than 20% serotonin release is detected with a therapeutic heparin concentration of (0.1 IU/ml) but not with a high dose of heparin (100 IU/ml).

whole blood = assay: Thrombin-induced fibrin deposition in whole blood, microfluidics chamber; assay type: cell-based; details: 0.08 U/ml of thrombin added to whole blood
Description: FIG. 3C provides fluorescence microscopy images of fibrin deposition. Whole blood was incubated with 0.08 U/ml of thrombin and stained with Alexa Fluor 647 anti-fibrin monoclonal antibody in the absence (vehicle) or presence of HRU5 or HRU6. White fluorescence indicates fibrin deposition.
(§1) HRU6 and HRU7 also contain anti-thrombin activity provided by the lepirudin and bivalirudin moieties respectively. The Hemoclot thrombin inhibitor assay was used to determine the anti-clotting activity. The normal clotting time range is 15-24 sec.

platelets [2] = assay: Thrombin-induced platelet aggregation; assay type: cell-based, human; details: 0.3 U of thrombin
Excerpt: For thrombin induced platelet aggregation samples were mixed as described above in the presence of 0.3 U of thrombin.

thrombin (Homo sapiens) = target: T1, thrombin (Homo sapiens); assay: Thrombin time assay in plasma; assay type: biochemical; details: undiluted plasma, increasing concentrations, in words
T1 construct: purchased Diagnostica STAGO S.A.A
Description: FIG. 3B is a graph of a Thrombin Time Delay assay for HRU6 and HRU7. Increasing concentrations of HRU molecules were incubated with undiluted plasma prepared from ACD anticoagulated blood. Clotting time of control plasma (untreated plasma) is shown corresponding to 0 concentration (closed circle). […] Clotting time is shown in sec.
The STA-Thrombin kit (Diagnostica STAGO S.A.A.) was used for the determination of the thrombin time by a haemostasis analyser. Plasma was prepared from ACD anticoagulated normal blood by centrifugation for 10 min at 2500×g. 500 μl of undiluted plasma, in the absence and presence of different inhibitor concentrations (e.g., HRU6 and HRU7), was analysed. Thrombin time of the plasma was determined by the analyser.
as §1

B1: HRU6: HRU5 linked to lepirudin (an anticoagulant peptide) by a Ser2Gly12 linker (protein)
scFv: EVQLVESGPELKKPGETVKISCKASGYTFTNYGMNWVKQAPGKGLKWMGWLNTYTGESIYPDDFKGRFAFSLETSASTAYLQINNLKSEDTATYFCARGDYGYDDPLDYWGQGTSVTVSSGGGGWAWVWLTETAVGGGGSDIVMTQAPPSVPVTPGESVSISCRSSKSLLHTNGNTYLHWFLQKPGQSPRLLIYRMSVLASGVPDRFSGSGSGTDFTLKISRVEAEDVGVYYCMQHLEYPLTFGAGTKLEIKRAGGGGSGGGGSGGGGLTYTDCTESGQNLCLCEGSNVCGQGNKCILGSDGEKNQCVTGEGTPKPQSHNDGDFEEIPEEYLQHHHHHH
B1 was tested, and the binding to monocytes (monocytes) was “unexpectedly strong binding to monocytes”, the “binding to human platelets” value (human platelets) was “stronger binding to human platelets than expected” and the 14C-serotonin release (platelets [1]) was “inhibited”. The “inhibition of fibrin deposition” value (whole blood) was “completely inhibits fibrin deposition”, the “inhibition of thrombin-induced platelet aggregation” value (platelets [2]) was “inhibit thrombin-induced platelet aggregation in a dose dependent manner” and the thrombin clotting time (thrombin (Homo sapiens)) was “significant increases in thrombin clotting time; also recorded: prolong clotting time in a dose-dependent manner”.
